Some test systems named below: PIM2; PIM3; PIP5K1A; PIP5K1C; PIP5K2B; PKMYT1; PKN1; PKN2; PLK1; PLK2; PLK3; PLK4; PRKCD; PRKCE; PRKCH; PRKCI; PRKCQ.
Conditions in all cases: concentration: 1 μM,replicates: in singlicate; n = 1
The next test concerns T1, PIP5K2C.
T1 construct: gene PIP4K2C

Another test relates to T2, PKAC-alpha.
T2 construct: gene PRKACA

For the next test, the system named is T3, PKAC-beta.
T3 construct: gene PRKACB

For some of these results: Most of the strong results are listed elsewhere, so they are rarer here than in the full data. The entries are a selection whose mix differs from that of the whole data set.
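Also: KINOMEscan kinase panel screen.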

`O=C1NC(=O)C(c2ccc(Cl)cc2)=C1Nc1ccccc1` [SB-317661]: the “%Inh” value was 0% in the test with PIM2; 7% with PIM3; 1% in the test with PIP5K1A; 0% with PIP5K1C; 0% in the test on PIP5K2B; 23% in the test with PIP5K2C. The “%Inh” value stood at 0% with PKAC-alpha; 0% in the test on PKAC-beta; 0% with PKMYT1; 0% with PKN1; 0% with PKN2; 23% with PLK1. The “%Inh” value is 6% in the test with PLK2; 17% with PLK3; 0% in the test with PLK4; 7% with PRKCD; 1% in the test on PRKCE; 0% with PRKCH. Besides, the “%Inh” value with PRKCI and with PRKCQ was 0% throughout.
Take `O=C1NC(=O)C(c2ccccc2)=C1Nc1ccc(Cl)c(C(=O)O)c1` [SB-390532]: the “%Inh” value with PIM2 was determined as 0%; in the test on PIM3, 2%; in the test on PIP5K1A, 51%; in the test with PIP5K1C it was 61%; in the test on PIP5K2B it was 17%; in the test on PIP5K2C, 68%. Further, the “%Inh” value with PKAC-alpha, in the test with PKAC-beta, in the test on PKMYT1, in the test with PKN1, in the test on PKN2 and in the test with PLK1 was 0% each time. The “%Inh” value is recorded as 0% with PLK2; 0% in the test on PLK3; 4% in the test with PLK4; 0% in the test with PRKCD; 30% in the test on PRKCE; 0% in the test with PRKCH. The results for the “%Inh” value in the test with PRKCI and in the test with PRKCQ were 13% and 0%, respectively.
Consider `CS(=O)(=O)c1ccccc1-c1nc(-c2ccc(F)cc2)c(-c2ccncc2)[nH]1` [SB-213663], for which the “%Inh” value in the test on PIM2 is recorded as 0%; with PIM3 it was 0%; in the test on PIP5K1A it was 9%; with PIP5K1C, 6%; with PIP5K2B, 0%; in the test on PIP5K2C, 18%. For the same compound, the “%Inh” value was found to be 81% in the test with PKAC-alpha; 77% with PKAC-beta; 7% with PKMYT1; 0% with PKN1; 21% in the test on PKN2; 0% in the test on PLK1. The “%Inh” value in the test with PLK2 was found to be 0%; in the test with PLK3, 0%; in the test with PLK4, 11%; in the test on PRKCD it was 0%; in the test on PRKCE, 27%; in the test with PRKCH, 0%. Further, the “%Inh” value in the test on PRKCI is 29%; in the test with PRKCQ it was 0%.
For `CSc1ccc(NC2=C(c3cccc(Cl)c3)C(=O)NC2=O)cc1` [SB-341528], the “%Inh” value was 10% in the test on PIM2; 0% in the test on PIM3; 100% in the test on PIP5K1A; 0% with PIP5K1C; 0% in the test on PIP5K2B; 0% in the test on PIP5K2C. Moreover, the “%Inh” value was 17% in the test with PKAC-alpha; 18% with PKAC-beta; 0% in the test on PKMYT1; 0% in the test with PKN1; 23% with PKN2; 13% with PLK1. Besides, the “%Inh” value in the test on PLK2 amounted to 0%; in the test on PLK3, 0%; in the test on PLK4, 0%; with PRKCD, 16%; in the test with PRKCE, 0%; in the test with PRKCH, 0%. In addition, the “%Inh” value with PRKCI is 10%; in the test with PRKCQ, 0%.
Take `O=C1NC(=O)C(c2ccc(Cl)cc2)=C1Nc1cccc(C(=O)O)c1` [SB-360737]: the “%Inh” value with PIM2 was found to be 0%; in the test on PIM3 it was 0%; with PIP5K1A, 0%; with PIP5K1C it was 0%; in the test with PIP5K2B it was 0%; with PIP5K2C, 6%. The “%Inh” value in the test on PKAC-alpha was found to be 0%; in the test with PKAC-beta, 16%; in the test on PKMYT1, 0%; in the test with PKN1, 38%; with PKN2, 0%; in the test on PLK1, 0%. The “%Inh” value was determined as 0% with PLK2; 1% with PLK3; 5% with PLK4; 0% in the test with PRKCD; 0% in the test on PRKCE; 12% in the test with PRKCH. The “%Inh” value in the test on PRKCI is given as 1%; in the test on PRKCQ it was 0%.
Take `Cc1ccc(C)c(Oc2nccc(-c3c(-c4ccc(F)cc4)ncn3C3CCNCC3)n2)c1.O=C(O)C(F)(F)F.O=C(O)C(F)(F)F.O=C(O)C(F)(F)F` [SB-284852]: the “%Inh” value is given as 24% with PIM2; 0% with PIM3; 15% in the test with PIP5K1A; 23% with PIP5K1C; 0% in the test on PIP5K2B; 28% in the test on PIP5K2C. Further, the “%Inh” value was found to be 10% in the test on PKAC-alpha; 33% in the test with PKAC-beta; 1% in the test on PKMYT1; 0% with PKN1; 32% with PKN2; 18% with PLK1. Moreover, the “%Inh” value with PLK2 is listed as 0%; in the test on PLK3 it was 11%; in the test on PLK4, 0%; with PRKCD, 14%; in the test on PRKCE, 1%; with PRKCH it was 0%. Besides, the “%Inh” value with PRKCI is recorded as 46%; in the test with PRKCQ, 30%.
Consider `COc1ccc(C2=C(Nc3cccc(Cl)c3)C(=O)NC2=O)cc1` [SB-326892], for which the “%Inh” value in the test with PIM2 is recorded as 0%; with PIM3, 0%; with PIP5K1A, 0%; in the test on PIP5K1C, 5%; in the test on PIP5K2B, 31%; in the test on PIP5K2C it was 0%. In addition, the “%Inh” value in the test on PKAC-alpha is listed as 0%; in the test on PKAC-beta it was 11%; with PKMYT1, 0%; in the test with PKN1 it was 8%; with PKN2, 0%; in the test with PLK1 it was 38%. The “%Inh” value was found to be 0% in the test with PLK2; 9% in the test on PLK3; 0% in the test with PLK4; 29% with PRKCD; 0% with PRKCE; 0% in the test with PRKCH. For the same compound, the entries for the “%Inh” value in the test with PRKCI and in the test with PRKCQ were 16% and 29%, respectively.
Regarding `O=C(O)c1ccc(-c2nc(-c3ccc(F)cc3)c(-c3ccncc3)[nH]2)cc1` [SB-202620], the “%Inh” value with PIM2 is listed as 24%; with PIM3, 1%; with PIP5K1A, 0%; with PIP5K1C, 0%; in the test with PIP5K2B, 14%; in the test on PIP5K2C, 0%. Further, the “%Inh” value in the test on PKAC-alpha is listed as 19%; with PKAC-beta it was 0%; with PKMYT1 it was 6%; in the test on PKN1, 0%; in the test with PKN2, 21%; in the test with PLK1, 0%. Moreover, the “%Inh” value in the test with PLK2 was 15%; in the test on PLK3, 21%; in the test with PLK4, 25%; with PRKCD, 33%; with PRKCE, 0%; with PRKCH, 0%. Further, the “%Inh” value with PRKCI was 41%; in the test with PRKCQ it was 0%.

The values are drawn from PMC5540273 (PLoS ONE, 2017).
